About 2,200 (0.71%) of roughly 310,000 compounds showed an effect of 50% or more. The effect is printed as a negative number. The list shows a part of the results.
Molecular target: human ether-à-go-go-related gene (hERG) potassium channel (human, UniProt Q12809)
Assay: primary screen, population patch clamp on CHO cells stably expressing hERG

Chain of human ether-à-go-go-related gene (hERG) potassium channel (Q12809 whole entry, looked up): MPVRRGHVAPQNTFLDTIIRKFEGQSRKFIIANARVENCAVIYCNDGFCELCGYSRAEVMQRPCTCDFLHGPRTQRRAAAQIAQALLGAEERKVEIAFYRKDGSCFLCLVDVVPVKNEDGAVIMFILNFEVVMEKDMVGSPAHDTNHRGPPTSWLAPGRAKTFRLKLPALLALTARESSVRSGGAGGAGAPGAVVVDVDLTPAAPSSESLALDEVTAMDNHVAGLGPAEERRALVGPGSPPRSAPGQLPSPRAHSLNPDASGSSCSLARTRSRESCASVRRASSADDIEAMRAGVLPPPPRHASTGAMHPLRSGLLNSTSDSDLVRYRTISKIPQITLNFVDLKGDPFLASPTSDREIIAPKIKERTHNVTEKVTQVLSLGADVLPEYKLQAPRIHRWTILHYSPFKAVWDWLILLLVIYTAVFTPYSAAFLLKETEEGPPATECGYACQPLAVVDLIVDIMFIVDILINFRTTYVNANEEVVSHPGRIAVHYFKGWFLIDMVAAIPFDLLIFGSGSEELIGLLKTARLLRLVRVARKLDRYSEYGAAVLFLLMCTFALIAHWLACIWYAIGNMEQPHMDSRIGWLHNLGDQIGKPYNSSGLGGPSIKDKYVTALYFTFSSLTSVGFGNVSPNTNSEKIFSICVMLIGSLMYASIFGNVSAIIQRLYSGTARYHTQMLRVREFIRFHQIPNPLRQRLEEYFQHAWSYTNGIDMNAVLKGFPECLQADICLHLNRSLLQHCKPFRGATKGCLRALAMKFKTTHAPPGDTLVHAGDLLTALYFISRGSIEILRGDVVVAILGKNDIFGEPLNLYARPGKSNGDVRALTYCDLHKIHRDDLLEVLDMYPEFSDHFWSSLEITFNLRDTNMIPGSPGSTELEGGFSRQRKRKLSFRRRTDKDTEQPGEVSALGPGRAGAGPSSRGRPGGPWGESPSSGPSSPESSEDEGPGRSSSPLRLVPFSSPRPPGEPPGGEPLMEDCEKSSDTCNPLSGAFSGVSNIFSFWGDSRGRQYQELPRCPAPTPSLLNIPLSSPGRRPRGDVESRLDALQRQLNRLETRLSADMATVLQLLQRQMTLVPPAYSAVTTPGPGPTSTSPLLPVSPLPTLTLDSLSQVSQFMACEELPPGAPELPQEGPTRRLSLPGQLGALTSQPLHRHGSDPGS

SMILES | hERG current change (%, negative = inhibition) at 1uM
CCOc1ccccc1OCCOCCN1CCN(Cc2ccccc2)CC1.O=C(O)C(=O)O | -12.9%
COc1ccc(-c2cc(C(F)F)n3ncc(C(=O)N4CCSCC4)c3n2)cc1 | -8.71%
CCCN1CCN(CCCNC(=O)c2ccccc2NC(=O)C2=C(C)OCCS2)CC1 | 5.99%
Oc1ccc(N2CCN(Cc3ccc(OCCCN4CCCCC4)cc3)CC2)cc1 | 9.04%
COc1ccccc1OCC#CCN1CCCC(C)C1.O=C(O)C(=O)O (stereo not shown) | 28.9%
O=C(Nc1cccc([N+](=O)[O-])c1)Nn1cnnc1 | 3.99%
O=C(NCCc1c[nH]c2ccccc12)C1CCN(Cc2ccc(Br)cc2)CC1 | -1.7%
COc1ccc(/C(C)=N/NC(=O)CNC(=O)c2cccnc2)c(OC)c1 | 9.76%
[2H]C(CCOS(N)(=O)=O)c1ccccc1 (stereo not shown) | 10.2%
CC(=O)Nc1ccc(S(=O)(=O)Oc2ccc3c(c2)C(C)=CC(C)(C)N3)cc1 | 9.9%
Cc1ccc(/C=C/C(=O)Nc2cccc3ncccc23)o1 | 19%
CCN(CC)c1ccc(/C=N/NC(=O)c2c(-c3ccccc3)noc2C)cc1 | 8.14%
COCCn1c(=NC(=O)CSCC(=O)NC2CCCCC2)sc2cc(OC)ccc21 | -6.62%
Cn1cc(C(=O)NC2CC2)c2ccccc21 | 19.3%
CC(OC(=O)c1cc(=O)[nH]c2ccccc12)c1ccccc1 (stereo not shown) | 6.83%
CC(=O)c1ccc(N2CCN(S(=O)(=O)c3ccc4c(c3)CC(=O)N4C)CC2)cc1 | 8.02%
O=C(NCCCc1ccccc1)c1cc([N+](=O)[O-])ccc1Cl | 13.5%
O=C(COC(=O)c1c2c(nc3ccccc13)/C(=C/c1cccc([N+](=O)[O-])c1)CCC2)NC1CCS(=O)(=O)C1 (stereo not shown) | -7.27%
Cc1c(C)n2c(SCC(=O)Nc3cccc4ccccc34)nnc2[nH]c1=O | 10.8%
COC(=O)C1=C(O)/C(=C\c2ccc(OCC(=O)Nc3ccccc3OC)cc2)N=C1C | 9.59%
CCN(CC)C(=O)c1[nH]cnc1C(=O)NCc1ccc(CNC(=O)OC(C)(C)C)cc1 | 19.9%
C=CCOc1cccc(NC(=O)c2ccccc2SC)c1 | 11.1%

SMILES | hERG current change (%, negative = inhibition) at 1uM
O=C(CCCc1ccccc1)N1CCc2ccccc21 | 13.7%
O=C(O)C1C2C=CC(O2)C1C(=O)Nc1ccccc1C(F)(F)F (stereo not shown) | 0.541%
CC1=Nc2cc(C(=O)NCCN3CCOCC3)ccc2Sc2c(C)ccc(C)c21 | 15%
COc1cccc(CN2CC(C(=O)NCCCCc3ccccn3)CCC2=O)c1 (stereo not shown) | 7.17%
Cc1c(C2C(C#N)=C(N)N(c3ccccc3C#N)C3=C2C(=O)CCC3)cnn1C (stereo not shown) | 7.52%
CN1CCCC(OC(=O)c2ccc(C(C)(C)C)cc2)C1.Cl (stereo not shown) | 15%
CCOP(=O)(OCC)c1nc(-c2ccc(Br)cc2)oc1N1CCCCC1 | -14%
CN1CCC(NC(=S)Nc2cccc([N+](=O)[O-])c2)CC1 | 16%
CCC(C)(C)NC(=O)C(c1cccn1C)N(C(=O)Cn1nnc2ccccc21)c1ccccc1OC (stereo not shown) | 1.68%
COc1ccc(S(=O)(=O)Oc2ccc3c(c2)O/C(=C\c2cccnc2)C3=O)cc1 | 0.695%
CCOc1ccc(C(=O)Nc2cc(C)on2)cc1OCC | 13.1%
COc1cc([N+](=O)[O-])ccc1NC(=O)NNC(=O)CCc1ccccc1 | 9.02%
CCN(CC)CCN(C)C(=O)c1ccc(OC2CCN(C(=O)C3CC3)CC2)cc1 | 6.4%
COc1ccc(C2NC(=O)C(C)S2)cc1 (stereo not shown) | 8.75%
CCCCOc1ccc(CONS(=O)(=O)c2ccc(NC(C)=O)cc2)cc1Cl | 13.9%
CC(=O)Nc1ccc(OCC(O)CN2C(C)CCCC2C)cc1.Cl (stereo not shown) | 15.2%
Cc1cccc(CN2CCN(Cc3ccc(-n4cccn4)cc3)CC2CCO)n1 (stereo not shown) | -1.6%
CCOC(=O)c1cc(-c2ccc(N)cc2)sc1N | -4.02%
Cc1c(Br)c([N+](=O)[O-])nn1CC(=O)NC1CCCCCC1 | 8.97%
Cc1ccc(C)c(NC(=O)CSc2nnc(-c3ccncc3)n2N)c1 | 11%
CN1C(=O)/C(=C/c2cccc(Cl)c2)Sc2ccc(C(=O)N3CCOCC3)cc21 | -9.05%
CCOC1=C/C(=C/c2c(N)n3nc(CC(=O)N4CCCC4)sc3nc2=O)C=CC1=O | 12.4%

SMILES | hERG current change (%, negative = inhibition) at 1uM
Cc1ccc(C=Nc2ccccc2C(N)=O)o1 | 10.2%
CN(CC(=O)Nc1ccc(F)c(F)c1F)C(=O)CN1C(=O)NC2(CCCC2)C1=O | 4.75%
O=C(Nc1nncs1)C12CC3CC(CC(Cl)(C3)C1)C2 | 13.6%
CCCCNC(=O)CN(C1CCCCC1)S(C)(=O)=O | 8.87%
Cc1cccc(NC(=O)CCCC(=O)OC(C)C(=O)c2ccccc2)c1 (stereo not shown) | 11.2%
Cc1ccc2cc(C=O)c(Cl)nc2c1 | 7.01%
CN(C)S(=O)(=O)c1ccc(NC(=O)CSc2nc3ccccc3n2-c2ccccc2)cc1 | 14.5%
Cc1ccccc1C1=N/C(=C/c2cccnc2)C(=O)O1 | 8.44%
CC(=O)NC(=S)Nc1cc(C(=O)O)ccc1Cl | 4.7%
O=C(NCC(=O)N(CC1CCCO1)C1(C(=O)NC2CCCC2)CCCCC1)c1ccccc1 (stereo not shown) | 7.47%
CC(C)C(c1nnnn1Cc1ccc2c(c1)OCO2)N1CCN(C)CC1.Cl (stereo not shown) | -1.23%
Cc1cccc(OCC(=O)N/N=C\c2cn(C)c3ccccc23)c1 | 6.95%
COCCOC(=O)C1=C(C)N=C2SCCC(=O)N2C1/C=C/c1ccccc1 (stereo not shown) | -3.18%
CC(C)CNC(=O)CN(c1cccc(Cl)c1)S(C)(=O)=O | 18.9%
CCOc1ccc(-n2cc(C(=O)Nc3cccc(Cl)c3)c3cc(OC)c(OC)cc3c2=O)cc1 | 0.151%
CCC(=O)Nc1ccc2nc(SCC(=O)N3CCCC3)sc2c1 | -2.75%
CC(C)OP(=O)(OC(C)C)C(Nc1ccccc1)c1cccc([N+](=O)[O-])c1 (stereo not shown) | 12%
N#Cc1cccc(NC(=O)Cn2c3[n+](c4ccc(C(F)(F)F)cc42)CCCCC3)c1.[Cl-] | 1.96%
NC(=O)CSc1nnc(Cc2csc(Nc3ccccc3)n2)n1Cc1ccccc1 | 5.15%
O=C(NNC1CC(=O)N(c2ccc(Cl)cc2)C1=O)c1ccccn1 (stereo not shown) | 5.81%
CCCCc1c(C)nc2ccccc2c1SCCC(=O)O | 9.45%
O=C1c2cccc(Cl)c2C(=O)c2c1cccc2N1CCCC1 | 6.17%

SMILES | hERG current change (%, negative = inhibition) at 1uM
Cc1cccc(OCC(=O)NNC(=O)C2CCN(c3ncnc4sc(C)c(C)c34)CC2)c1 | 4.58%
O=C(Oc1ccc(N(C(=O)c2ccncc2)S(=O)(=O)c2cccs2)cc1)c1ccncc1 | 11.4%
COC(=O)c1ccc(NC(=O)N2CCCC(C(=O)c3ccccc3OC)C2)cc1 (stereo not shown) | 5.54%
CCOc1cc(/C=N\NC(=O)C2C(=O)NCC2c2ccccc2)ccc1OC (stereo not shown) | 10%
COc1ccc(Nc2nc(C)cc(C)c2C#N)c(OC)c1 | 19.2%
Cc1ccccc1NC(=O)Cc1nc(-c2ccc3ccccc3c2)cs1 | 8.13%
Cc1ccccc1C(=O)Nc1ccc(N2CCOCC2)nc1 | -7.62%
CCC12CN3CC(CC)(CN(C1)C3c1cccnc1)C2=O (stereo not shown) | 2.69%
Cn1nnnc1SCC(=O)N1c2ccccc2Sc2ccccc21 | 7.6%
COc1ccc(OC)c(CNC(=O)c2ccc(C)c(NC(=O)C3=C(C)OCCS3)c2)c1 | 8.54%
CCOC(=O)c1ccccc1NC(=O)c1c(O)[nH]c(=S)[nH]c1=O | 12.3%
Cc1ccc2c(c1)CCCN2C(=O)c1cccs1 | -2.83%
COc1cccc(-c2nnc3sc(-c4cccs4)nn23)c1 | 9.55%
O=C(COc1ccc(-c2nnco2)cc1)N1CCN(S(=O)(=O)c2ccc3ccccc3c2)CC1 | 5.97%
COc1ccc(CCNC(=S)Nc2ccc(C(C)C)cc2)cc1 | 12.8%
C#CCNC(=O)C1=C[C@@H](C2CCCCC2)C[C@@H](OCCCCO)O1 | 11.7%
NS(=O)(=O)c1cccc(NC(=O)COC(=O)CCCc2c[nH]c3ccccc23)c1 | 13.9%
Cl.N=c1n(CCN2CCOCC2)c2ccccc2n1CC(O)COc1ccccc1 (stereo not shown) | -3.77%
CCc1ccc(N(C)S(=O)(=O)c2ccc3[nH]cc(C(=O)NCCN4CCOCC4)c(=O)c3c2)cc1 | 4.01%
O=C(CN1CCCC1=O)NC1(C(F)(F)F)NC(=O)N(Cc2ccccc2)C1=O (stereo not shown) | 17.9%
CC(C)n1c(S(=O)(=O)O)nc2ccccc21 | 21.1%
c1cnc2ccc(C(c3nnnn3C3CCCC3)N3CCN(c4nc5ccccc5s4)CC3)cc2c1 (stereo not shown) | -10.4%
